From the supplement of paper PMC12217912
Some of the results follow. The full chains were built here from the parent and the listed change. Values near 0.05 are background.

B1: TEV protease; numbered along this chain (parent)
chain: MGESLFKGPRDYNPISSSICHLTNESDGHTTSLYGIGFGPFIITNKHLFRRNNGTLVVQSLHGVFKVKDTTTLQQHLVDGRDMIIIRMPKDFPPFPQKLKFREPQREERICLVTTNFQTKSMSSMVSDTSCTFPSGDGIFWKHWIQTKDGQCGSPLVSTRDGFIVGIHSASNFTNTNNYFTSVPKNFMELLTNQEAQQWVSGWRLNADSVLWGGHKVFMVKPEEPFQPVKEATQL

Variants of: B1
Experiment: raw area under fraction-flipped curve 0-4 h after induction (AUC4h, not background-subtracted), DNA-recorder readout of cleavage of the substrate (dimensionless); higher = more cleavage of the substrate by the protease variant
Conditions: temperature: 34 °C; time window: 0-4 h after rhamnose induction
Method: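 In vivo DNA recorder in E. coli TOP10(DE3) ΔrhaA at 34 °C. Each TEVp single-site mutant (parent TEVp 0) is paired with a single-site variant of the 7-mer TEVs (canonical ENLYFQ|S). The substrate sits between flexible linkers in a Bxb1-sfGFP-TEVs-SsrA fusion, so cleavage stabilises Bxb1 and speeds flipping of a recombination array, read by NGS. The value is the raw area under the fraction-flipped curve over 0-4 h after rhamnose induction (AUC4h), with ≥20 reads per time point. It is not background-subtracted; inactive controls average about 0.047.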
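Further: Bxb1 expression induced with 0.2% (w/v) L-rhamnose at OD600 near 0.5, cultures sampled hourly, flipped fraction per protease–substrate barcode pair counted by paired-end Illumina sequencing.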

Variant | area with substrate ENLAFQS | area with substrate ENLHFQS | area with substrate ENLIFQS | area with substrate ENLNFQS | area with substrate ENLPFQS | area with substrate ENLQFQS | area with substrate ENLRFQS | area with substrate ENLSFQS | area with substrate ENLWFQS | area with substrate ENLCFQS | area with substrate ENLDFQS | area with substrate ENLEFQS | area with substrate ENLFFQS | area with substrate ENLGFQS | area with substrate ENLKFQS | area with substrate ENLMFQS | area with substrate ENLVFQS | area with substrate ENLLFQS | area with substrate ENLTFQS
MGESLFKGPRDYNPISSSICHLTNESDGHTTSLYGIGFGPFIITNKHLFRRNNGTLVVQSLHGVFKVKDTTTLQQHLVDGRDMIIIRMPKDFPPFPQKLKFREPQREERICLVTTNFQTKSMSSMVSDTSCTFPSGDGYFWKHWIQTKDGQCGSPLVSTRDGFIVGIHSASNFTNTNNYFTSVPKNFMELLTNQEAQQWVSGWRLNADSVLWGGHKVFMVKPEEPFQPVKEATQL [I139Y] | 0.0639 | 0.0619 | 0.0605 | 0.0573 | 0.0582 | 0.0754 | 0.046 | 0.0732 | 0.0537 |  |  |  |  |  |  |  |  |  | 
MGESLFKGPRDYNPISSSICHLTNESDGHTTSLYGIGFGPFIITNKHLFRRNNGTLVVQSLHGVFKVKDTTTLQQHLVDGRDMIIIRMPKDFPPFPQKLKFREPQREERICLVTTNFQTKSMSSMVSDTSCTFPSGDGIEWKHWIQTKDGQCGSPLVSTRDGFIVGIHSASNFTNTNNYFTSVPKNFMELLTNQEAQQWVSGWRLNADSVLWGGHKVFMVKPEEPFQPVKEATQL [F140E] | 0.0694 | 0.06 | 0.0913 | 0.0701 | 0.0538 | 0.0432 | 0.0913 | 0.0579 | 0.0606 | 0.0768 | 0.0232 | 0.0799 | 0.069 | 0.0736 | 0.0665 | 0.0976 |  |  | 
MGESLFKGPRDYNPISSSICHLTNESDGHTTSLYGIGFGPFIITNKHLFRRNNGTLVVQSLHGVFKVKDTTTLQQHLVDGRDMIIIRMPKDFPPFPQKLKFREPQREERICLVTTNFQTKSMSSMVSDTSCTFPSGDGIFGKHWIQTKDGQCGSPLVSTRDGFIVGIHSASNFTNTNNYFTSVPKNFMELLTNQEAQQWVSGWRLNADSVLWGGHKVFMVKPEEPFQPVKEATQL [W141G] | 0.0554 | 0.0554 |  | 0.0432 | 0.0311 | 0.0553 | 0.0574 | 0.0356 |  |  | 0.059 | 0.0556 | 0.0734 |  | 0.0513 | 0.0461 | 0.0939 |  | 
MGESLFKGPRDYNPISSSICHLTNESDGHTTSLYGIGFGPFIITNKHLFRRNNGTLVVQSLHGVFKVKDTTTLQQHLVDGRDMIIIRMPKDFPPFPQKLKFREPQREERICLVTTNFQTKSMSSMVSDTSCTFPSGDGIFWHHWIQTKDGQCGSPLVSTRDGFIVGIHSASNFTNTNNYFTSVPKNFMELLTNQEAQQWVSGWRLNADSVLWGGHKVFMVKPEEPFQPVKEATQL [K142H] | 0.0789 | 0.0785 | 0.0823 | 0.0626 | 0.0634 | 0.0767 | 0.069 | 0.0574 | 0.0681 |  | 0.0617 | 0.0718 | 0.0912 | 0.067 | 0.0776 | 0.0731 | 0.0988 | 0.0775 | 0.0678
